Laboratory results from article PMC6120942.
Results are given in words; binding and its absence hold for the method and conditions named. In cells and extracts the contact can be indirect. Some binding calls cover weakened binding; strength is not graded here.

Chains of the proteins cited; added tags and fusions are not shown. Lines headed by an entry give the natural chain unless they say otherwise; changes in a name come on top. A line that says so, or that is headed by a name, gives the form on record, which may keep a tag or linker.
UniProt P51532: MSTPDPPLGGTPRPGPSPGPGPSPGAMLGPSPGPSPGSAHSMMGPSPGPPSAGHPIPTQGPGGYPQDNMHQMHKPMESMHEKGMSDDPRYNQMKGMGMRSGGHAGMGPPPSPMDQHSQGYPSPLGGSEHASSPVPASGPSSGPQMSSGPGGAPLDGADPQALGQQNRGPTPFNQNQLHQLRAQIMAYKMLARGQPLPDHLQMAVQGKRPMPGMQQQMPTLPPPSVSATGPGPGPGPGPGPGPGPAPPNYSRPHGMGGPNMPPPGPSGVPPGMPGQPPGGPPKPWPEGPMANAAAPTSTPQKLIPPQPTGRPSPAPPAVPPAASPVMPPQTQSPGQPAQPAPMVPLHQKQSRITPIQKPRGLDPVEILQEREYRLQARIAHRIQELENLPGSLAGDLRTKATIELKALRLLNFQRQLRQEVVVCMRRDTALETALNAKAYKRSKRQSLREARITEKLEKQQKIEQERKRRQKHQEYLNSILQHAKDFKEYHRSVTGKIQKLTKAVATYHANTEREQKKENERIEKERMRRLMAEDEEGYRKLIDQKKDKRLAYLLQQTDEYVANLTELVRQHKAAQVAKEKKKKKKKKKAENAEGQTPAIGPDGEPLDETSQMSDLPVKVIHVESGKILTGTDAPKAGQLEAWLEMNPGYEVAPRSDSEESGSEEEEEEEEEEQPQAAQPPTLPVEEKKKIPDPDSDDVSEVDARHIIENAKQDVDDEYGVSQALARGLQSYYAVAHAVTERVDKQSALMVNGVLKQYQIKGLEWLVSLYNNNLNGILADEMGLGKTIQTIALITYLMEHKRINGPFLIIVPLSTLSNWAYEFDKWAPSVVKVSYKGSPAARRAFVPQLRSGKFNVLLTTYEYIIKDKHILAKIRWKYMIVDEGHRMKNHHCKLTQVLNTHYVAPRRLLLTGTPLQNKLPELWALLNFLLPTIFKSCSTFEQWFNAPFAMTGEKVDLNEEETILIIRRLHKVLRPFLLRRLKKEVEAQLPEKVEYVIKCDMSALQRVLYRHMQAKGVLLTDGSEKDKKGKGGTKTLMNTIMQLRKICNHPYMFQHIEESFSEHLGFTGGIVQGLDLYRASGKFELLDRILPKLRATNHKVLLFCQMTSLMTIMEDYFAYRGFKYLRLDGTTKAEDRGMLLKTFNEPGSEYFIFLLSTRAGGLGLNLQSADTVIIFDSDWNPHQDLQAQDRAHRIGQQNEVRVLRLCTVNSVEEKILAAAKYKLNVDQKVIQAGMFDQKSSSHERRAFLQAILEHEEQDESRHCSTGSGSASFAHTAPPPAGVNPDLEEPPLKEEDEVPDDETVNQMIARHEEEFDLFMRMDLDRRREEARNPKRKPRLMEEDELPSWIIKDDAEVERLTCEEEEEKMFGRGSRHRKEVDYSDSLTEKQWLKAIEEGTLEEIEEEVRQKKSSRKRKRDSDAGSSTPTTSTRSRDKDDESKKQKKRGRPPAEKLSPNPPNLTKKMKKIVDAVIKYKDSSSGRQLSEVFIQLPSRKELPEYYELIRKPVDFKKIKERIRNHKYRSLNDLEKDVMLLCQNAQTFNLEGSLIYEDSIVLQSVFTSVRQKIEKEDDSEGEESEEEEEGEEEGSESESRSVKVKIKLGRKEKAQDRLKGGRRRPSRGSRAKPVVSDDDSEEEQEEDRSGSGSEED
GST-Brg1 (1–104aa) S31A/S35A (P51532, form named): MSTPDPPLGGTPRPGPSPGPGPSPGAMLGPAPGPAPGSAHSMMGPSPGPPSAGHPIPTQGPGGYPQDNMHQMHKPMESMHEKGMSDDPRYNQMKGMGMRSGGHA
UniProt Q969H0: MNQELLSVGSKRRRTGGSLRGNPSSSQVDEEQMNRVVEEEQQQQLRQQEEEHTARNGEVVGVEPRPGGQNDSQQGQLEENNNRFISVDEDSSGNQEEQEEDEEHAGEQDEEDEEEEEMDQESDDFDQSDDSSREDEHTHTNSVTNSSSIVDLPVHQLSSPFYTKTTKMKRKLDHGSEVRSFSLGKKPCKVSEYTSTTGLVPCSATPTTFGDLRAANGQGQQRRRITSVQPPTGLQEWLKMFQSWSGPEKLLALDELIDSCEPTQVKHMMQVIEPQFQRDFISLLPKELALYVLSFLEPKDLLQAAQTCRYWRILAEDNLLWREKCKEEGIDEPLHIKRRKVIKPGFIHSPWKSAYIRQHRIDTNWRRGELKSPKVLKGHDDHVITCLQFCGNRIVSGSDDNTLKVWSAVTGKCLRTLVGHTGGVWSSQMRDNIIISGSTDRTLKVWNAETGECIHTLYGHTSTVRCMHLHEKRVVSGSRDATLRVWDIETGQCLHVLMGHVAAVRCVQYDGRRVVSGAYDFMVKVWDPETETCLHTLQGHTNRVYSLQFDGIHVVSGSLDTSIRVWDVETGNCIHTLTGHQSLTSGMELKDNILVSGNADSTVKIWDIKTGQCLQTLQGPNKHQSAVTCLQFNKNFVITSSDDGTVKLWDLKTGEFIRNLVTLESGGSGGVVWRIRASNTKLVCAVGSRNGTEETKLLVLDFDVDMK
FBW7β (Q969H0-2, form named): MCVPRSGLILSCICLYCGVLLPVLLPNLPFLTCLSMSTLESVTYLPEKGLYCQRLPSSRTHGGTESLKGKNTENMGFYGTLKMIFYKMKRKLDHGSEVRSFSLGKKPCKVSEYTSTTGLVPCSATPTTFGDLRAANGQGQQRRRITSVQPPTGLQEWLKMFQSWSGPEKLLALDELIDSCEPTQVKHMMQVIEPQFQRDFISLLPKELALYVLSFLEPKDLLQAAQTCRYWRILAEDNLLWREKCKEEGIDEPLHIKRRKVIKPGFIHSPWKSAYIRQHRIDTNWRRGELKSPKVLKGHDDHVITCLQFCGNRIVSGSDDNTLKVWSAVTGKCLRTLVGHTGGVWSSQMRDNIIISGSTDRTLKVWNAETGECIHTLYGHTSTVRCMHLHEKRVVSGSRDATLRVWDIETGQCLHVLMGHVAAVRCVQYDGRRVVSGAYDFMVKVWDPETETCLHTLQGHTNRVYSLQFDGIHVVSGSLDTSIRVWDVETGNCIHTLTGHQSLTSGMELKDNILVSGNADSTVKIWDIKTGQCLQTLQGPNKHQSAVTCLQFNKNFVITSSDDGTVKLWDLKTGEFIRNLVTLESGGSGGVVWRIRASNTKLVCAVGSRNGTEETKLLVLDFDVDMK
FBW7γ (Q969H0-4, form named): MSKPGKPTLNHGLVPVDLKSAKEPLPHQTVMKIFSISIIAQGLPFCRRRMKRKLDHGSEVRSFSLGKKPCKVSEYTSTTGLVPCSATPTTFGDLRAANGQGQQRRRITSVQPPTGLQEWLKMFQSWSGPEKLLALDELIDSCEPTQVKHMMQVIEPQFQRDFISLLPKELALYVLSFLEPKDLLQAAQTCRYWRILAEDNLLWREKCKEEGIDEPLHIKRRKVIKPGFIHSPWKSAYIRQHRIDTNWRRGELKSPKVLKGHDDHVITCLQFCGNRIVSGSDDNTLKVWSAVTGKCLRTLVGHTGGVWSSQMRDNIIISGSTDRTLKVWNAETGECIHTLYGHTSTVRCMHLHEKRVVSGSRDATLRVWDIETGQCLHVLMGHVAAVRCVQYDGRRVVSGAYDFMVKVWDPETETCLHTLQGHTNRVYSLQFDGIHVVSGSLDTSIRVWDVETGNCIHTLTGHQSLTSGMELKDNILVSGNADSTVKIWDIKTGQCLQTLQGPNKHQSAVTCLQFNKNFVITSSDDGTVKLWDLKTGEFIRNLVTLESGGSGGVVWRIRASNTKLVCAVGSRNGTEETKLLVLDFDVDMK

Tests used:
Flag-Brg1 [1] = molecular target: Flag-Brg1 (UniProt P51532); assay: co-IP; 293T cells transfected with tagged constructs; lysis in EBC buffer (50 mM Tris pH 8.0, 120 mM NaCl, 0.5% NP-40), 4 °C, washes in NETN buffer; in Fig. 2d also with the CK1 inhibitor IC261 (20 μM, 8 h; interaction decreased)
Flag-Brg1 [2] = molecular target: Flag-Brg1 (UniProt P51532); assay: co-IP; FBW7 isoforms α, β, γ tested with Brg1 (Supplementary Figure 2b); cells and constructs not given
[3] = molecular target: GST-Brg1 (1–104aa) S31A/S35A (UniProt P51532); assay: pull-down; bacterially purified GST-Brg1 (1–104aa) proteins, in vitro kinase reaction with CK1, then pull-down of HA-FBW7; GST as negative control; only the target purified
[4] = molecular target: endogenous Brg1 (human (endogenous in MKN45)) (UniProt P51532); assay: co-IP; endogenous proteins in MKN45 cells, anti-Brg1 antibody (sc-17796), mouse IgG as control; also after etoposide or cisplatin treatment (binding increased)

binding (Flag-Brg1 [1]) | binding (Flag-Brg1 [2]) | Substance | other results
no binding | – | FBW7 R465H (from UniProt Q969H0 1-707) | –
no binding | – | FBW7 R479Q (from UniProt Q969H0 1-707) | –
no binding | – | FBW7 R505C (from UniProt Q969H0 1-707) | –
– | binds | FBW7α (from UniProt Q969H0-1 1-707) | –
– | no binding | FBW7β (from UniProt Q969H0-2 1-627) | –
– | no binding | FBW7γ (from UniProt Q969H0-4 1-589) | –
binds | – | HA-FBW7 (from UniProt Q969H0 1-707) | binding [3]: no binding
– | – | endogenous FBW7 (from UniProt Q969H0 1-707) | binding [4]: binds
